Source: PubChem BioAssay AID1468 (National Center for Advancing Translational Sciences (NCATS), 2008)
In all, about 280,000 compounds went through this assay and about 1,100 (0.39%) were called active. The inconclusive results got no clear call from the source; some entries with a clear call stand among them for comparison. Calls come from the whole dose curve; as a rule, active = well fitted inhibition curve with a large enough effect; inconclusive = small, poorly fitted or top-dose-only effect, or effect the other way; inactive = flat fitted curve, though single readings scatter. Potencies of inconclusive entries are left out as doubtful fits.

Molecular target: Microtubule-associated protein tau (Homo sapiens) (UniProt P10636)
Assay: qHTS for Inhibitors of Tau Fibril Formation, Fluorescence Polarization; note: nearly all actives have a fitted effect of over 55% in size
Conditions: K18 P301L tau heparin fibrillization, Alexa594 FP, 6 h; series mostly up to 57.7 µM; activity, negative = inhibition: at the top concentration
Outline: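 FP of Alexa 594-tau after heparin (20 uM) induction. Substrate: human K18 P301L, 15 uM unlabeled, 0.24 uM labeled. Buffer 100 mM sodium acetate pH 7. 6 hr, 37 C.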
% is set by controls: 0 for no effect and ±100 for the full control effect; potency is the fitted concentration of half-maximal effect; tags give direction and shape of the fitted curve.

Sequence of UniProt P10636 (P10636 whole entry, looked up): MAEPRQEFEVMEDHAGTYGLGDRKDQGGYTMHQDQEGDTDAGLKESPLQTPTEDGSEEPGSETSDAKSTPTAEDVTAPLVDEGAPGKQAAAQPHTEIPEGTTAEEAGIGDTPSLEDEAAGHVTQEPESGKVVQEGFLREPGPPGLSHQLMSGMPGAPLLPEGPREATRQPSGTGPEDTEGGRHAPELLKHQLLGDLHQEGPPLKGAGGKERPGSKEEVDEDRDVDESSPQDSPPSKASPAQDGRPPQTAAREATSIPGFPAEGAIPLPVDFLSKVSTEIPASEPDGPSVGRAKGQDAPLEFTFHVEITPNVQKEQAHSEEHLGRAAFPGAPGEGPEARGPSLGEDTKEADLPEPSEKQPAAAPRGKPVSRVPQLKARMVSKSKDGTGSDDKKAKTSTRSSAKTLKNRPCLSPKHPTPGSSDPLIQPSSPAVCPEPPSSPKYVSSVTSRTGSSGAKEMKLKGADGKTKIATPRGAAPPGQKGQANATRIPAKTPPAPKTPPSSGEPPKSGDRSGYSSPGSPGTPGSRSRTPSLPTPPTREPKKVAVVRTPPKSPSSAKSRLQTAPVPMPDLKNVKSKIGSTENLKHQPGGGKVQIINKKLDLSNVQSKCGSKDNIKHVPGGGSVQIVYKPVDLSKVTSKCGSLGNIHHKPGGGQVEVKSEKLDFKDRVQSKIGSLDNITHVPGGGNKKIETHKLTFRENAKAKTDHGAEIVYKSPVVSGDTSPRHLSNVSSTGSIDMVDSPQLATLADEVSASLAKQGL

**Q.** With Cc1ccccc1Cn1c(=O)n(-c2ccccc2)c(=O)c2ccc(C(=O)NCc3ccco3)cc21 as the molecule, how does the Potency read?
**A.** inconclusive [inhibitor, full curve]

**Q.** For CCCNS(=O)(=O)c1ccc(OCC(=O)NCCC2=CCCCC2)cc1, which “activity, negative = inhibition” value is on record?
**A.** inactive: 1.1%

**Q.** How did the Potency turn out when CCc1ccc(N(CC(=O)Nc2nc3ccc(C)cc3s2)S(=O)(=O)c2c(C)noc2C)cc1 was run?
**A.** inconclusive [inhibitor, partial curve]

**Q.** Which Potency does the source give for O=C(CN1CCN(c2ccccn2)CC1)N1CCc2ccccc21 here?
**A.** inconclusive [inhibitor, partial curve]

**Q.** For Cc1nc2nc(C(F)(F)F)[nH]n2c(=O)c1Cc1ccccc1, which “activity, negative = inhibition” value is on record?
**A.** inactive: 14.3%

**Q.** Which “activity, negative = inhibition” value does the source give for O=C(/C=C/C=C/c1ccc2c(c1)OCO2)N1CCCCC1 here?
**A.** inactive: 1.49%

**Q.** With CCOP(=O)(OCC)C(NC(=O)Nc1ccc(Cl)cc1)c1ccccc1 (centres undefined) as the molecule, how does the Potency read?
**A.** inconclusive [inhibitor, partial curve, poor fit]

**Q.** How did the Potency turn out when COc1ccc(Cl)cc1NS(=O)(=O)c1c(C)[nH]c(=O)[nH]c1=O was run?
**A.** inconclusive [inhibitor, partial curve]

**Q.** Which “activity, negative = inhibition” value does the source give for Cc1ccc(Cn2c(C)c3cnn(CC(=O)N4CCN(c5ccc(F)cc5)CC4)c(=O)c3c2C)cc1 here?
**A.** inactive: 0.197%

**Q.** With CCOC(=O)c1c(C)n(S(=O)(=O)c2ccc(C)cc2)c2ccc(NS(=O)(=O)c3ccc(C)cc3)cc12 as the molecule, how does the Potency read?
**A.** inconclusive [inhibitor, partial curve]

**Q.** With O=S(=O)(Nc1ccc(N2CCCCC2)cc1)c1ccc(F)cc1 as the molecule, how does the Potency read?
**A.** inconclusive [activator, full curve]

**Q.** With CCOC(=O)c1ccc(NC(=O)N2CCN(c3ccccn3)CC2)cc1 as the molecule, how does the “activity, negative = inhibition” value read?
**A.** inactive: -0.725%

**Q.** With Cc1ccc(N=c2sc(C)c(C)n2C)cc1 as the molecule, how does the Potency read?
**A.** inconclusive [activator, partial curve, poor fit]

**Q.** Which “activity, negative = inhibition” value does the source give for C=C(C)CN=C1NN=C(c2cc(C)n(-c3ccc(C)cc3)c2C)CS1 here?
**A.** inactive: -6.27%

**Q.** For Cc1ccccc1C(=O)Nc1ccc2oc(-c3ccc(Cl)c(Cl)c3)nc2c1, which “activity, negative = inhibition” value is on record?
**A.** inactive: -3.59%

**Q.** For C/C(=N\NC(=O)C(=O)Nc1cccc(C(F)(F)F)c1)c1ccc(Cl)s1, which Potency is on record?
**A.** inconclusive [inhibitor, single point]

**Q.** With COc1ccc(-n2c(Cc3cccn3C)nnc2SCC(=O)Nc2ccc(C)c(Cl)c2)cc1 as the molecule, how does the Potency read?
**A.** inconclusive [activator, full curve, poor fit]

**Q.** With Cc1csc(NC(=O)c2ccc(S(=O)(=O)N(C)c3ccccc3)cc2)n1 as the molecule, how does the Potency read?
**A.** inconclusive [inhibitor, single point]

**Q.** For O=C(CCCC1=NS(=O)(=O)c2ccccc2N1)N1CCN(c2ccc(Cl)cc2)CC1, which Potency is on record?
**A.** inconclusive [inhibitor, single point]

**Q.** Cc1cc(Nc2cccc(C(F)(F)F)c2)nc2ccc(NC(=O)c3cccnc3)cc12 was tested. Which Potency did it give?
**A.** inconclusive [inhibitor, single point]

**Q.** Which “activity, negative = inhibition” value does the source give for Cc1cc(-n2c(C)cc(C(=S)N3CCOCC3)c2C)ccc1Br here?
**A.** inactive: -13.3%

**Q.** With CC(C)(/C=N/O)/[N+]([O-])=C/C=[N+](\[O-])C(C)(C)/C=N/O as the molecule, how does the “activity, negative = inhibition” value read?
**A.** inactive: -8.58%

**Q.** CCOc1ccc(-n2nnnc2SCC(=O)c2ccccc2)cc1 was tested. Which Potency did it give?
**A.** inconclusive [inhibitor, single point]

**Q.** Which Potency does the source give for CC(C)(C)NS(=O)(=O)c1cccc(S(=O)(=O)c2cccc(S(=O)(=O)NC(C)(C)C)c2)c1 here?
**A.** inconclusive [inhibitor, partial curve, poor fit]

**Q.** CCCCCC(=O)Nc1ccc(-c2csc(C)n2)cc1 was tested. Which “activity, negative = inhibition” value did it give?
**A.** inactive: -3.68%

**Q.** With CCc1[nH]nc2c1C(c1cccc(OC(=O)N3CCOCC3)c1)C(C#N)=C(N)O2 (centres undefined) as the molecule, how does the “activity, negative = inhibition” value read?
**A.** inactive: 6.57%

**Q.** Which “activity, negative = inhibition” value does the source give for Cc1ccc(-c2cc(C(F)F)n3ncc(C(=O)Nc4c(C)nn(Cc5c(Cl)cccc5Cl)c4C)c3n2)cc1 here?
**A.** inactive: 1.72%

**Q.** How did the Potency turn out when Cc1cc(-c2ccccc2)n2nc(C)c(-c3ccccc3)c2n1 was run?
**A.** inconclusive [inhibitor, single point]

**Q.** For COc1ccc(C(=O)CCNc2ccc(C)c(Cl)c2)cc1, which Potency is on record?
**A.** inconclusive [activator, full curve, poor fit]

**Q.** For COc1ccc(CNC(=O)/C=C/c2cc3c(cc2Br)OCO3)cc1, which Potency is on record?
**A.** inconclusive [inhibitor, single point]

**Q.** For N#C/C(=C\c1c(Oc2ccc(F)cc2)nc2ccccn2c1=O)c1nc2ccccc2s1, which Potency is on record?
**A.** inconclusive [inhibitor, partial curve, poor fit]

**Q.** How did the Potency turn out when c1ccc(CSc2ccc(-c3cccnc3)nn2)cc1 was run?
**A.** inconclusive [inhibitor, single point]

**Q.** COCC(=O)O[C@]1(CCN(C)CCCc2nc3ccccc3[nH]2)CCc2cc(F)ccc2[C@@H]1C(C)C was tested. Which Potency did it give?
**A.** inconclusive [inhibitor, partial curve, poor fit]

**Q.** How did the Potency turn out when COc1ccc(N2CCN(C(CNC(=O)C(=O)NCCc3c[nH]c4ccccc34)c3ccco3)CC2)cc1 (centres undefined) was run?
**A.** inconclusive [activator, partial curve]

**Q.** How did the “activity, negative = inhibition” value turn out when Cc1ccccc1-c1ccc(=O)n(CC(=O)Nc2ccc(N3CCOCC3)cc2)n1 was run?
**A.** inactive: 4.23%

**Q.** How did the “activity, negative = inhibition” value turn out when CCc1ccc(CNC(=O)C2CCN(C(=O)c3ccc(-n4ccc5ccccc54)s3)CC2)cc1 was run?
**A.** inactive: -7.97%

**Q.** Which Potency does the source give for Oc1ccc(CNc2ccccc2O)cc1 here?
**A.** inconclusive [inhibitor, single point]

**Q.** For Cc1oc2c(c(=O)c1C)C(=O)CC(c1ccccc1)C2 (centres undefined), which “activity, negative = inhibition” value is on record?
**A.** inactive: 2.58%

**Q.** Cc1ccccc1-c1noc(-c2ccc(N3CCCC3)c([N+](=O)[O-])c2)n1 was tested. Which “activity, negative = inhibition” value did it give?
**A.** inactive: -0.599%

**Q.** Cn1c(N)c(C(=O)COC(=O)C2(c3cccc(F)c3)CCCC2)c(=O)n(C)c1=O was tested. Which Potency did it give?
**A.** inconclusive [inhibitor, partial curve]

**Q.** For CCc1ccc(NC(=O)COC(=O)/C(=C/c2ccccc2OC)c2ccccc2)cc1, which Potency is on record?
**A.** inconclusive [inhibitor, partial curve]

**Q.** For O=C(CNC(=O)c1cccc(Cl)c1)N/N=C/c1cccnc1, which Potency is on record?
**A.** inconclusive [inhibitor, single point]

**Q.** For COc1cccc(-c2nc(N3CCN(C)CC3)c3ccccc3n2)c1O, which Potency is on record?
**A.** inconclusive [activator, single point]

**Q.** How did the Potency turn out when O=C(NCCOc1ccccc1)C(=O)c1c[nH]c2ccccc12 was run?
**A.** inconclusive [inhibitor, single point]

**Q.** For CCN(CC)C(=O)CSc1ncnc2c1nnn2-c1ccc(OC)cc1, which “activity, negative = inhibition” value is on record?
**A.** inactive: -4.43%

**Q.** Which Potency does the source give for CC(C)c1ccc(NC(=O)CN2C=NS(=O)(=O)c3ccccc32)cc1 here?
**A.** inconclusive [inhibitor, full curve, poor fit]

**Q.** For O=C(O)c1ccc(N=NN2CCOCC2)cc1, which Potency is on record?
**A.** inconclusive [inhibitor, partial curve]

**Q.** COc1ccc(OC(=O)CCc2c[nH]c3ccccc23)cc1 was tested. Which Potency did it give?
**A.** inconclusive [activator, partial curve, poor fit]

**Q.** For COc1ccc(-c2nnc(SCC(=O)c3ccc([N+](=O)[O-])cc3)o2)cc1OC, which “activity, negative = inhibition” value is on record?
**A.** inactive: -0.135%

**Q.** How did the “activity, negative = inhibition” value turn out when OC(CNc1ccccc1)COc1ccc(OCC(O)CNc2ccccc2)cc1 (centres undefined) was run?
**A.** inactive: 9.82%

**Q.** Which Potency does the source give for COC(=O)C(NC(C)=O)(Nc1ccccc1)C(=O)OC here?
**A.** inconclusive [inhibitor, full curve, poor fit]

**Q.** Which “activity, negative = inhibition” value does the source give for Cc1cc(C)c2nc(NNC(=O)c3ccc(S(=O)(=O)N4CCc5ccccc5C4)cc3)sc2c1 here?
**A.** inactive: 3.41%

**Q.** For COc1ccccc1NC(=O)c1ccc(NC(=O)c2cc3c(s2)CCC3)cc1, which Potency is on record?
**A.** inconclusive [inhibitor, single point]

**Q.** For Nn1c(SCC(=O)NC2CCCCC2)nnc1C1CC1, which “activity, negative = inhibition” value is on record?
**A.** inactive: 0.566%

**Q.** For COc1ccc2c(c1)Cc1sc(NC(=O)c3ccc(Cl)cc3)nc1-2, which Potency is on record?
**A.** inconclusive [inhibitor, single point]

**Q.** Which Potency does the source give for COc1ccc(Oc2ccc(/C=C/C(=O)c3ccc(O)cc3)cc2[N+](=O)[O-])cc1 here?
**A.** inconclusive [inhibitor, single point]

**Q.** Cc1ccc(-n2c(SCc3ccccc3C)nc3[nH]ncc3c2=O)cc1C was tested. Which Potency did it give?
**A.** inconclusive [inhibitor, single point]

**Q.** How did the Potency turn out when COC(=O)c1ccc(NC(=O)CSc2nc3c(c(=O)n(C)c(=O)n3C)n2Cc2ccccc2)cc1 was run?
**A.** inconclusive [inhibitor, partial curve]

**Q.** With COc1ccc(C(=O)NCc2nnc(SCC(=O)Nc3ccc(F)cc3)n2-c2ccccc2)cc1 as the molecule, how does the “activity, negative = inhibition” value read?
**A.** inactive: -3.25%

**Q.** Cc1ccc(C(=O)c2oc3ccccc3c2NC(=O)COc2ccc(C(C)(C)C)cc2)cc1 was tested. Which Potency did it give?
**A.** inconclusive [inhibitor, single point]

**Q.** How did the Potency turn out when CN(C)S(=O)(=O)c1ccc(N2CCCC2)c(C(=O)Nc2nc3ccc(F)cc3s2)c1 was run?
**A.** inconclusive [inhibitor, single point]

**Q.** With O=C(Nc1ccc(F)cc1)OCCN1CCN(Cc2ccccc2)CCC1=O as the molecule, how does the Potency read?
**A.** inconclusive [inhibitor, single point]

**Q.** For O=C1NC(=Nc2ccc(Cl)cc2)SC1Cc1cc(Cl)ccc1Cl (centres undefined), which Potency is on record?
**A.** inconclusive [inhibitor, partial curve, poor fit]

**Q.** CCCCCCn1c(-c2cccs2)n[nH]c1=S was tested. Which “activity, negative = inhibition” value did it give?
**A.** inactive: 6.51%

**Q.** Which “activity, negative = inhibition” value does the source give for CCOC(=O)c1ccc(NC(=O)c2ccccc2C)cc1 here?
**A.** inactive: 1.52%

**Q.** With CCOc1ccc(/C=N/Nc2cc(C)nc(N3CCOCC3)n2)cc1 as the molecule, how does the Potency read?
**A.** inconclusive [activator, single point]

**Q.** Cc1cc(Nc2cccc(F)c2)nc(-c2ccccc2O)n1 was tested. Which Potency did it give?
**A.** active: 11.2 µM

**Q.** For Cc1ccc(C)c(OCC(=O)Nc2nonc2NC(=O)COc2cc(C)ccc2C)c1, which Potency is on record?
**A.** inconclusive [inhibitor, partial curve]

**Q.** O=C1CC(=O)c2c1cccc2[N+](=O)[O-] was tested. Which Potency did it give?
**A.** inconclusive [inhibitor, single point]
